{"source": "PubChem BioAssay AID1347120", "about": "(National Center for Advancing Translational Sciences (NCATS), 2019)", "note": "Hit rate of the full screen: of about 390,000 compounds, about 930 (0.24%) were called active. The shares of active, inactive and inconclusive entries below differ from those in the screen. Calls follow the shape of the dose curve; as a rule, active = well fitted activation curve with a large enough effect; inconclusive = small, poorly fitted or top-dose-only effect; inactive = no such curve, though single readings can be large or run the other way. Where the call is inconclusive, the potency comes from a doubtful curve fit. Potency is read from the fitted curve at half-maximal effect; tags tell the direction and shape of the fitted curve."}
{"test": "qHTS for Suppressors of FUS Proteinopathy: Primary screen using FUS-linked yeast assay; also: nearly all actives have a fitted effect of over 55% in size", "details": "S. cerevisiae FUS-expressing, OD600, 24 h; Potency: growth rescue; series mostly up to 76.6 µM", "summary_of_the_method": "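Yeast FUS proteinopathy model; galactose-induced FUS (2%), starting OD 0.005. Cpds in dilution series, 24hr, 30C, 99% humidity. Abs 600 nm growth. Pos ctrl CP55940 (top 92uM final); neg ctrl DMSO.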"}
{"compound": "CCNC(=S)N(Cc1cc2cc(C)c(C)cc2[nH]c1=O)C1CCCC1", "Potency": "inconclusive: 39.8 µM [activator, single point]"}
{"compound": "CN(CC(=O)Nc1ccccc1C(=O)N1CCCC1)S(=O)(=O)c1ccc(Br)cc1", "Potency": "inconclusive: 35.5 µM [activator, partial curve, poor fit]"}
{"compound": "COC(=O)c1cccc(C23CC4(C2)[C@H](CN(Cc2ccc(C(F)(F)F)cc2)[C@@H]4c2ccccc2)C3c2ccc(Cl)nc2)c1", "note": "(stereo partly specified)", "Potency": "inconclusive: 35.5 µM [activator, single point]"}
{"compound": "C#CCOCCOCCOCCNc1nc(N2CCN(C(=O)CCCCCCCCCCNC(=O)[C@@H](CCSC)n3cc(CCO)nn3)CC2)nc(N2CCN(C(=O)CCCCCCCCCCNC(=O)[C@H](CCSC)n3cc(CCO)nn3)CC2)n1", "Potency": "inconclusive: 10 µM [activator, full curve]"}
{"compound": "Cn1c(=O)c(=O)n(C)c2cc(S(=O)(=O)N3CCN(Cc4ccc(F)cc4)CC3)ccc21", "Potency": "inactive"}
{"compound": "CNC(=O)C(=O)Nc1ccc2c(c1)N(S(=O)(=O)c1cccs1)CCC2", "Potency": "inactive"}
{"compound": "COc1ccc(-c2cc(C(C)=O)c(C)n2CCC(=O)NC2CCCCC2)cc1", "Potency": "inconclusive: 35.5 µM [activator, single point]"}
{"compound": "CCOc1ccc(CNC(=O)C2CCN(C(=O)c3sccc3-n3cccc3)CC2)cc1", "Potency": "inactive"}
{"compound": "COc1ccc(C#Cc2c(-c3ccccc3)n(-c3ccccc3)c3ccc(CO)cc23)cc1", "Potency": "inconclusive: 35.5 µM [activator, single point]"}
{"compound": "CN1CCC(=O)N([C@H](COc2ccccc2)Cc2ccccc2)CC1", "Potency": "inactive"}
{"compound": "CCC(C(=O)NC1CCCC1)n1c(-c2cc3ccccc3[nH]2)nc2ccccc21", "note": "(stereo unspecified)", "Potency": "inconclusive: 25.1 µM [activator, single point]"}
{"compound": "O=c1c(-c2ccccc2)nc2ccccc2n1C(c1ccccn1)c1nc2ccccc2[nH]1", "note": "(stereo unspecified)", "Potency": "inconclusive: 39.8 µM [activator, single point]"}
{"compound": "Cc1ccc(-c2noc(CSc3nnc(C)n3-c3ccc(C)cc3)n2)cc1", "Potency": "inconclusive: 25.1 µM [activator, single point]"}
{"compound": "CC(C)(C)OC(=O)NCCCCCNC(=O)c1[nH]cnc1C(=O)Nc1ccccc1", "Potency": "inconclusive: 35.5 µM [activator, single point]"}
{"compound": "CN1CCc2c(OCC(=O)N3N=C(c4cccs4)CC3c3ccc(F)cc3)cccc2C1=O", "note": "(stereo unspecified)", "Potency": "inconclusive: 22.4 µM [activator, single point]"}
{"compound": "Cc1cc(N2CCCC2)ccc1NC(=O)CN1C(=O)NC2(CCCCC2)C1=O", "Potency": "inconclusive: 10 µM [activator, partial curve]"}
{"compound": "CCOC(=O)C1=C(c2ccccc2)N=c2sc(=Cc3cc(OC)c(OC)c(OC)c3)c(=O)n2C1c1cccs1", "note": "(stereo unspecified)", "Potency": "inconclusive: 50.1 µM [activator, single point]"}
{"compound": "O=C(CS(=O)(=O)c1nc(-c2ccc(Cl)cc2)cn1-c1ccccc1)Nc1ccc(F)cc1F", "Potency": "inconclusive: 35.5 µM [activator, single point]"}
{"compound": "CC(C)OC(=O)CN1C(=O)S/C(=C/c2ccc(N3CCCCC3)o2)C1=O", "Potency": "inconclusive: 31.6 µM [activator, single point]"}
{"compound": "CCOC(=O)[C@@]12CCCC3=C1N(CCC3)C(=O)[C@H]2CC(=O)N1CCCC1", "Potency": "inactive"}
{"compound": "CCOC(=O)c1c(C)[nH]c(C)c1S(=O)(=O)NCC(=O)N1CCN(c2cc(Cl)ccc2C)CC1", "Potency": "inconclusive: 15.8 µM [activator, partial curve]"}
{"compound": "O=C(CCSCc1ccccc1Cl)N1CCN(c2ccc(F)cc2)CC1", "Potency": "inconclusive: 17.8 µM [activator, partial curve, poor fit]"}
{"compound": "O=c1c2ccccc2nnn1CSc1ccc2c(c1)OCCO2", "Potency": "inactive"}
{"compound": "COc1ccc(F)cc1-c1cc(C(=O)Nc2ccc(C)c(NS(C)(=O)=O)c2)[nH]n1", "Potency": "inactive"}
{"compound": "CC1Cc2ccccc2N1C(=O)Cn1c(=O)oc2cc(S(=O)(=O)N3CCCCC3)ccc21", "note": "(stereo unspecified)", "Potency": "inconclusive: 28.2 µM [activator, single point]"}
{"compound": "COc1cc2c(cc1OC)CN(C(=O)CCCOc1ccc(Cl)cc1Cl)CC2", "Potency": "inconclusive: 12.6 µM [activator, partial curve]"}
{"compound": "Cc1nnc(SCC(=O)NC23CC4CC(CC(C4)C2)C3)n(N)c1=O", "Potency": "inactive"}
{"compound": "Cc1cc(C)c(S(=O)(=O)N2CCN(C3CC(=O)N(c4ccccc4Cl)C3=O)CC2)c(C)c1", "note": "(stereo unspecified)", "Potency": "inconclusive: 12.6 µM [activator, partial curve, poor fit]"}
{"compound": "O=C(NCCc1nc2ccccc2[nH]1)/C(=C/c1ccc2c(c1)OCO2)NC(=O)c1ccccc1Cl", "Potency": "inconclusive: 7.08 µM [activator, full curve]"}
{"compound": "COc1cccc(CO[C@H]2C=C[C@@H](c3ccccc3)O[C@@H]2COC(C)=O)c1", "Potency": "inactive"}
{"compound": "O=C1CCC(C(=O)N2CCN(c3ccccc3Cl)CC2)CN1CC1CCCCC1", "note": "(stereo unspecified)", "Potency": "inconclusive: 39.8 µM [activator, partial curve, poor fit]"}
{"compound": "CCCCNc1c(-c2ccc(SC(C)CC)cc2)nc2cnccn12", "note": "(stereo unspecified)", "Potency": "active: 10 µM"}
{"compound": "COc1ccc(-n2c(C)cc(C(=O)CSc3nn4c(=O)c(C(C)(C)C)nnc4s3)c2C)cc1", "Potency": "inconclusive: 39.8 µM [activator, partial curve, poor fit]"}
{"compound": "Cc1ccc(S(=O)(=O)NC(C)(C)CN2CCC(Cc3ccccc3)CC2)cc1", "Potency": "inactive"}
{"compound": "CN(c1ccccc1)c1nc(-n2ccnc2)nc(-n2ccnc2)n1", "Potency": "inactive"}
{"compound": "CCCCCCCCNS(=O)(=O)/C=C/c1ccc(OC)cc1CNC(=O)OC(C)(C)C", "Potency": "inconclusive: 28.2 µM [activator, single point]"}
{"compound": "Cc1ccc(C(=O)Nc2ccccc2-c2ccccc2)cc1S(=O)(=O)Nc1ccccc1", "Potency": "inconclusive: 25.1 µM [activator, single point]"}
{"compound": "CN(c1cccc(NC(=O)c2ccc(C(C)(C)C)cc2)c1)S(C)(=O)=O", "Potency": "inconclusive: 39.8 µM [activator, partial curve, poor fit]"}
{"compound": "Cc1nc(CCNC(=O)Cc2ccccc2)cs1", "Potency": "inactive"}
{"compound": "CC(=O)NC(=S)Nc1ccc(N2CCOCC2)c(S(=O)(=O)Nc2cc(Cl)ccc2Cl)c1", "Potency": "inconclusive: 11.2 µM [activator, partial curve, poor fit]"}
{"compound": "COc1ccc(CN(C(=O)c2ccc(C)cc2)c2cccc(N)c2)cc1", "Potency": "inconclusive: 31.6 µM [activator, partial curve, poor fit]"}
{"compound": "O=C(NCc1ccc(Cl)cc1)c1cc(-c2cccs2)on1", "Potency": "inactive"}
{"compound": "O=S(=O)(Nc1cccc(-c2ccc(N3CCOCC3)nn2)c1)c1ccccc1C(F)(F)F", "Potency": "inconclusive: 22.4 µM [activator, single point]"}
{"compound": "CC(C)NC(=O)NC(=O)COC(=O)c1c2c(nc3ccccc13)CCC2", "Potency": "inconclusive: 25.1 µM [activator, single point]"}
{"compound": "Cc1ccc(CN2CC(=O)N3[C@H]4c5ccccc5OC[C@@H]4[C@H](c4ccccc4)[C@]3(C)C2=O)cc1", "Potency": "inconclusive: 28.2 µM [activator, single point]"}
{"compound": "CC1=C(C(=O)Nc2cccnc2)C(c2ccc(Cl)cc2)n2nc(SCc3ccccc3)nc2N1", "note": "(stereo unspecified)", "Potency": "inactive"}
{"compound": "CCC(C(=O)NC1CCCCC1)N(C(=O)c1snc(C(N)=O)c1N)c1ccc(OC)cc1OC", "note": "(stereo unspecified)", "Potency": "inconclusive: 20 µM [activator, partial curve]"}
{"compound": "COc1ccc(SC[C@H](C)CN2CC[C@H](NC(=O)OCc3ccccc3)CCC2=O)cc1", "Potency": "inconclusive: 22.4 µM [activator, single point]"}
{"compound": "CN(C(=O)c1ccc2c(c1)N(Cc1ccccc1F)C(=O)c1ccccc1S2(=O)=O)C1CCCCC1", "Potency": "active: 10 µM"}
{"compound": "NC(Cc1ccc(Cl)cc1)c1csc(NC(=O)Nc2ccccc2-c2ccccc2)n1", "note": "(stereo unspecified)", "Potency": "inconclusive: 50.1 µM [activator, single point]"}
{"compound": "CCCCNc1c(-c2ccc(SC(C)CC)cc2)nc2ccccn12", "note": "(stereo unspecified)", "Potency": "inconclusive: 22.4 µM [activator, partial curve, poor fit]"}
{"compound": "O=C(CC1N=C2c3ccccc3N=C(SCc3ccccc3Cl)N2C1=O)NCc1cccs1", "note": "(stereo unspecified)", "Potency": "inconclusive: 28.2 µM [activator, single point]"}
{"compound": "CCC(C)(C)NC(=O)C(c1ccc(F)cc1)N(Cc1ccco1)C(=O)c1cnccn1", "note": "(stereo unspecified)", "Potency": "inconclusive: 31.6 µM [activator, partial curve, poor fit]"}
{"compound": "COc1ccc(C2=CC(=O)C[C@H](c3ccc(F)cc3)C2)c(OC)c1", "Potency": "inconclusive: 39.8 µM [activator, single point]"}
{"compound": "O=C(NCC(F)(F)F)c1ccc(S(=O)(=O)NCCc2ccc3c(c2)OCCO3)cc1", "Potency": "inconclusive: 20 µM [activator, partial curve]"}
{"compound": "O=C1c2ccccc2NC(c2ccc(-c3ccc(Br)cc3)o2)N1O", "note": "(stereo unspecified)", "Potency": "inconclusive: 28.2 µM [activator, single point]"}
{"compound": "CCN(C(=O)c1nn(-c2ccc(C)cc2)c(=O)c2c1c1ccccc1n2C)c1ccc(F)cc1", "Potency": "inactive"}
{"compound": "CCOC(=O)c1cc(-c2ccc(F)cc2)n(CCC(=O)NCc2ccccc2OC)c1C", "Potency": "inconclusive: 31.6 µM [activator, single point]"}
{"compound": "COc1ccc(N=Nc2nc(-c3ccccc3)c(-c3ccccc3)[nH]2)cc1", "Potency": "inactive"}
{"compound": "COC(=O)[C@]12C[C@H](CC(=O)N3CCCC3)C(=O)N(CCC3=CCCCC3)C1=C[C@H](C(C)C)O[C@@H]2C1CC1", "Potency": "inconclusive: 28.2 µM [activator, partial curve]"}
{"compound": "COc1ccc(-c2ccc(CN3C(C(C)C)C(=O)N(Cc4cn(CCC5OCCO5)nn4)CCS3(=O)=O)cc2)cc1", "note": "(stereo unspecified)", "Potency": "inconclusive: 25.1 µM [activator, single point]"}
